A short description of experiment [1]: qHTS Assay for Lipid Storage Modulators (AID 1519). To be noted: Drosophila S3 cells, BODIPY lipid droplet/cell ratio, laser cytometry, cells loaded with oleic acid. In outline:
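Cells seeded at 5,000 per well were treated with compounds over a concentration series and loaded with oleic acid (400 uM, as added). Lipid droplet fluorescence (488 nm excitation, 500-530 nm channel) was read by laser-scanning cytometry and normalized to 20 uM Triacsin C.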
(In general: Quantitative high-throughput screening tests each substance at several concentrations.)

Experiment [2] is described as follows: NCATS anti-infectives library activity on the primary C. elegans qHTS viability assay (AID 1745855). To be noted: C. elegans worm area imaging. In outline:
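Viability read-out is GFP fluorescence of PE254-GFP-FLuc C. elegans, measured by laser cytometry (488 nm) at day 0, 3 and 7. Ten L1 worms per well were incubated 7 days at 21 °C with compounds and bacterial capsules in S medium.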

Experiment [3] in a line: qHTS Assay for Modulators of Human Peripheral Myelin Protein 22 (PMP22) Expression/Activity (AID 1967). The following applies: Cell-based PMP22 reporter, dual-color luciferase ratio. The method, boiled down:
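Quantitative HTS in a mouse Schwann cell line expressing dual click beetle luciferases: Pmp22 promoter (green) and control EF-alpha promoter (red). After 24h treatment, corrected green/red signal ratio gave %Activity relative to untreated cells.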

In experiment [4] the target is Catechol O-methyltransferase (Homo sapiens) (UniProt P21964). As to the kind of experiment: Confirmatory Screen for Target Class Profiling of Small Molecule Inhibitors of Methyltransferases (AID 1745852).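 Further: inhibitor potency for blocking SAH production.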 The following applies: MTase-Glo luminescence, SAH detection, recombinant enzyme; measured here: COMT inhibition potency.
Sequence of UniProt P21964 (P21964 whole entry, looked up, the tested form may be a part): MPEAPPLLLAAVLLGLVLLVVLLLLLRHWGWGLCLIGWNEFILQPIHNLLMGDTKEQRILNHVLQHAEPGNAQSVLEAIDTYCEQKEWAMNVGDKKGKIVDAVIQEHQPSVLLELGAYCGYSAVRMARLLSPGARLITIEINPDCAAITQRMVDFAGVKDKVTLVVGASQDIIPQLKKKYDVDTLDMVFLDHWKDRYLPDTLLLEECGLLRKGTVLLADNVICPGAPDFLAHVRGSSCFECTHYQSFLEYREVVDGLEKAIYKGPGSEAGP
The nature of experiment [5]: qHTS for identification of novel therapeutic agents for treatment of microphthalmiaassociated transcription factor (MiT) renal cell carcinoma (RCC) (AID 1963991). To be noted: CellTiter-Glo, 48 h; for z-score: stronger effect = lower value. The method, boiled down: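 Curves over 11 concentrations were fitted to CellTiter-Glo luminescence, scaled between empty wells (0%) and DMSO (100%) viability. Cells were UOK109, UOK124 and UOK145 TFE3-fusion RCC lines at 500/well, exposed 48 hours at 37 C.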

A short description of experiment [6]: qHTS Validation Assay to Find Inhibitors of Chronic Active B-Cell Receptor Signaling (AID 485345). The following applies: ABC-DLBCL cells, chronic BCR signaling reporter. In outline:
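Read-out: ratio of filter-corrected green (IkappaBalpha fusion) to red (native) luciferase signal in doxycycline-induced TMD8 cells after 4 h at 37C. Titration spanned 46 uM–3 nM; Data were normalised to basal cells and 10 uM MG-132 wells.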

Experiment [7] can be described thus: Nrf2 qHTS screen for inhibitors: Validation (AID 493153). To be noted: A549 ARE-Fluc reporter, 18-24 h; AC50: CellTiter-Fluor fluorescence read, measured here: cytotoxicity CellTiter-Fluor AC50; viability change: measured here: cytotoxicity max response. In outline: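 Luminescence from an ARE-firefly luciferase reporter in A549 cells gives Nrf2 inhibition; an earlier CellTiter-Fluor fluorescent read flags cytotoxicity. Cells in 5% FBS OPTI-MEM received compound dilution series for 18-24 h at 37°C.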

Experiment [8] in a line: qHTS assay for small molecule antagonists of androgen receptor signaling (AID 588516). The following applies: AR-UAS-bla HEK293, beta-lactamase ratio, antagonist mode, 16 h; measured here: W460 blue channel fit. The method, boiled down: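 Cells were plated and incubated 5 h, compounds added in titration, then R1881 (10 nM final) as agonist. After 16 h at 37 C, CCF4 substrate was loaded for 2 h at room temperature and fluorescence measured.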

Experiment [9] can be described thus: qHTS assay for small molecule antagonists of glucocorticoid receptor signaling (AID 588533).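 Further: cells stimulated with 2 nM dexamethasone as agonist.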 To be noted: HeLa MMTV-bla, GRE beta-lactamase ratio, antagonist mode, 18 h; measured here: W530 channel AC50.
Experiment [10] in a line: qHTS assay for small molecule antagonists of peroxisome proliferator-activated receptor delta signaling (AID 588535).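 Further: cells co-treated with a PPAR-delta agonist as stimulator during compound exposure.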 The following applies: HEK293T PPARd-UAS-bla, beta-lactamase FRET ratio, 18 h; 460 nm channel. In outline:
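HEK293T PPAR-delta-UAS-bla cells, 4000/well, 2% charcoal/dextran FBS; 5 h 37 C; cpd titration; 18 h 37 C; CCF4 2 h RT; FI 460/530 nm; Hill fit → IC50, efficacy.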

Experiment [11] is described as follows: qHTS assay for small molecule antagonists of peroxisome proliferator-activated receptor gamma signaling (AID 588537). To be noted: HEK293 PPARg-UAS-bla, beta-lactamase ratio, antagonist mode; measured here: W460 blue channel. The method, boiled down:
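Antagonist mode, beta-lactamase reporter in HEK293; charcoal/dextran FBS 1%; 3000 cells/well, 37 C 6-6.5 h; cpd titration + rosiglitazone 50 nM final, 16 h 37 C; CCF4, 2 h RT; 460/530 nm; Hill fit → IC50, efficacy.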

A short description of experiment [12]: S16 Schwann cell PMP22 intronic element beta-lactamase assay (AID 624044). Further: nearly all actives have a fitted effect of over 15% in size. To be noted: S16 rat Schwann cells, PMP22 element beta-lactamase FRET, 24 h; measured here: 460 nm blue channel. The method, boiled down:
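Rat S16 Schwann cells with beta-Lac driven by a PMP22 intronic element, compound-treated 24 h at 37 °C. LiveBLAzer FRET B/G read: 460 nm normalized to potassium clavulanate vs DMSO; 535 nm FRET as viability; concentration-effect curves classified.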

Experiment [13] can be described thus: A High-Content qHTS Against Drug Library for the Identification of Small Molecules that Inhibit DYT1 Early Onset Primary Dystonia-Associated Cell Pathology (AID 1645839). To be noted: HEK293 Flp-In EGFP-delE TorsinA, punctate imaging, 48 h; measured here: cell count cytotoxicity. In outline:
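In this high-content image screen, delE TorsinA mislocalization in inducible Flp-In 293 cells is scored as %pathology, with cell count serving as the counterscreen. Compound exposure lasts 48 h under tetracycline induction in reduced-serum medium.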

Experiment [14] can be described thus: qHTS drug screen for cell cycle checkpoint inhibitors in PARPi-resistant BRCA-mutant ovarian cancer cell lines. (AID 1963452). The following applies: PEO1/OlaR viability, CellTiter-Glo luminescence, 96 h. The method, boiled down: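 PEO1, PEO4 and PEO1/OlaR ovarian cancer cells, 600 per well, exposed 96 h at 37C to a dilution series. Viability read by CellTiter-Glo luminescence, normalized to DMSO and empty wells; activity summarized as Z-AUC.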

Setting [15] is: measured here: cell count channel max response.
Setting [16] is: measured here: cell number channel AC50.
Setting [17] is: measured here: lipid (BODIPY) channel AC50.
[18] abbreviates: measured here: lipid channel max response.
The mark [19] stands for this setting: measured here: red reporter channel AC50, EF-alpha promoter control reporter in MSC80 mouse Schwann cells.
Where [20] appears, read: TFE3-RCC UOK109 viability, measured here: UOK109 Z-AUC.
Setting [21] is: TFE3-RCC viability, measured here: UOK124 Z-AUC.
Setting [22] is: TFE3-RCC viability, measured here: UOK145 Z-AUC.
Setting [23] is: TFE3-RCC viability, measured here: UOK145 cell viability.

Values joined by “and” are separate entries in the source; they are usually repeats but may differ in a detail not shown here. Equal values may be shown once. This is one part of the list. The main result of the screen is listed elsewhere. These columns were measured beside it and carry no call. For some of these results: Most of these compounds were active or inconclusive in the main read-out, so they are no random draw. For some of these results: Potencies come from curve fits of mixed quality, noted in brackets.
Tags describe the fitted curve by direction and shape.

As for `COc1ccc2c(c1)[nH]c1c(C)nccc12`, the values for the max response in experiment [1] (setting [15]) and in [1] (setting [18]) were 42.8% and 40%, respectively. The AC50 was 0.282 µM [rising, full curve, poor fit] in [1] (setting [16]); 0.316 µM [rising, full curve, poor fit] in experiment [1] (setting [17]); 25.8 µM [falling, single point] in experiment [2] (day 7, measured here: worm number); 25.8 µM [falling, single point] in [2] (day 7, measured here: worm area, day 3); 25.8 µM [falling, partial curve, poor fit] in experiment [2] (day 7, measured here: worm number, day 3).

As for `N#CC(C#N)=Cc1ccc(O)c(O)c1`, the max response in experiment [1] (setting [15]) was 79.1% and -35.5%; in [1] (setting [18]), 97.8% and -47.9%. Besides, the AC50 in [1] (setting [16]) is 8.91 µM [rising, partial curve, poor fit]; in experiment [1] (setting [17]), 12.6 µM [rising, partial curve]; in experiment [3] (setting [19]) it was 75.7 µM [falling, single point]. Moreover, the IC50 in [4] was 1.72 µM [rising, full curve].

For the molecule `CN(C)C(=O)Oc1cc(OC(=O)N(C)C)cc(C(O)CNC(C)(C)C)c1` (centres undefined), the max response in experiment [1] (setting [15]) turned out to be 34.7%; in experiment [1] (setting [18]) it was 41.9%. In addition, the AC50 in experiment [1] (setting [16]) is 39.8 µM [rising, single point]; in [1] (setting [17]) it was 39.8 µM [rising, single point].

Take `CCC1(c2ccc(N)cc2)CCC(=O)NC1=O` (centres undefined): the max response in experiment [1] (setting [15]) was 22.8% and -90.6%; in [1] (setting [18]) it was 33.9% and -90.7%. Further, the AC50 is 15.8 µM [falling, partial curve, poor fit] in experiment [1] (setting [16]); 22.4 µM [rising, partial curve, poor fit] and 15.8 µM [falling, partial curve, poor fit] in experiment [1] (setting [17]); 84.9 µM [falling, single point] in experiment [3] (setting [19]); 0.166 µM [falling, full curve] in [5] (setting [23]). Further, the z-score in experiment [5] (setting [20]) was found to be 0.399; in experiment [5] (setting [21]) it was 0.582; in experiment [5] (setting [22]), 2.39.

With `C=C(C)[C@H]1Cc2c(ccc3c2O[C@@H]2COc4cc(OC)c(OC)cc4[C@@H]2C3=O)O1`, the max response in experiment [1] (setting [15]) is 40.4% and -8.11%; in [1] (setting [18]), -57.1% and -82.6%; in [10] it was -19.2%. For the same molecule, the AC50 in experiment [1] (setting [16]) was 14.1 µM [rising, partial curve, poor fit]; in experiment [1] (setting [17]), 794 nM [falling, full curve] and 20 nM [falling, full curve]; in [3] (measured here: green reporter channel AC50, mouse Pmp22 promoter in mouse Schwann cells) it was 0.0601 µM [falling, full curve]; in experiment [3] (setting [19]) it was 0.0478 µM [falling, full curve]; in [6] (measured here: CBG/CBR ratio read-out), 18.4 µM [falling, partial curve]; in experiment [6] (measured here: CBR control luciferase (viability counter)), 25.9 µM [rising, single point]. Further, the AC50 is 2.31 µM [falling, partial curve] in experiment [7]; 20 µM [falling, partial curve, poor fit] in experiment [8]; 0.0501 µM [falling, full curve, poor fit] in experiment [9]; 39.8 µM [falling, partial curve, poor fit] in [11]; 0.00707 µM [falling, full curve, poor fit] in experiment [12]; 0.562 µM [falling, full curve, poor fit] in [13]. Also, the AC50 in experiment [14] (measured here: PEO1 parental viability) was 0.0155 µM [falling, full curve]; in [14] (measured here: PEO4 viability), 0.0871 µM [falling, full curve]; in [5] (TFE3-RCC viability, measured here: UOK124 cell viability), 4.18 µM [falling, partial curve]; in experiment [5] (setting [23]), 2.96 µM [falling, full curve]. In addition, in experiment [7], the viability change is -33.3%. In addition, the z-score in experiment [5] (setting [20]) is -0.196; in [5] (setting [21]) it was -1.03; in [5] (setting [22]), -0.141.

As a reminder, the AC50 is the midpoint of the concentration-response curve, whichever way the signal moves. The term IC50 denotes the concentration that inhibits the measured activity by half.

The values above are taken from PubChem BioAssay (NCATS).
